According to PubChem BioAssay (NCI):
Values joined by “and” are separate entries in the source; they are usually repeats but may differ in a detail not shown here. Equal entries are not always repeated.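 A five-concentration, 48-hour dose response in 96-well plates underlies each endpoint, interpolated linearly between surrounding concentrations. GI50: concentration for 50% inhibition of growth. TGI denotes the concentration required for complete inhibition of growth.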

tested on: NCI-H322M lung; experiment: DTP human tumour cell line panel, 48 h

Row | SMILES | TGI | GI50
1 | OCCO[P+]1(OCCO)n2c3ccc2C(c2ccccc2)=C2C=CC(=N2)C(c2ccccc2)=c2ccc(n21)=C(c1ccccc1)C1=NC(=C3c2ccccc2)C=C1 | 1.46 µM | –
2 | CCOC(=O)N(C)C1(c2ccccc2)CCN(CCCC(=O)c2ccc(F)cc2)CC1 | > 100 µM | –
3 | O=CN1CCN(C=S)CC1 | > 100 µM | –
4 | COc1ccc2c(c1)[C@@]1(C)CCC3c4ccc(O)cc4CCC3C1C2 (stereo partly drawn) | 32.8 µM | 15.3 µM
5 | O=[N+]([O-])c1ccc(Cl)cc1C=NC12CC3CC(CC(C3)C1)C2 | > 100 µM | –
6 | COC1/C=C/C(C)C(C(C)C(OC)C(C)CCC(=O)C(C)C(C/C=C/N(C)C=O)OC)OC(=O)/C=C/C=C(\C)CC(OC)C(OC)C2=CC(=O)O[C@@H](C(C)C(OC)CC(OC)/C=C/C(C)C(O)C1)[C@H]2O (stereo partly drawn) | 0.926 µM | –
7 | CCOC(=O)c1cnc2cc3cccccc3n2c1=O | > 100 µM | –
8 | c1ccc(C2=C(c3ccccc3)P(c3ccccc3)C2)cc1 (stereo not drawn) | > 100 µM | –
9 | C#CCOC(=O)C(N)CCCN=C(N)N (stereo not drawn) | > 100 µM | –
10 | COc1ccc(-c2nc3sc4c(c3c(=O)[nH]2)CCCC4)c2ccccc12 | > 100 µM | 0.646 µM and 2.43 µM
11 | CC[C@@H]1CC[C@@H]2[C@H](CC[C@]3(C)[C@@H](OS(=O)(=O)c4ccc(C)cc4)CC[C@@H]23)[C@H]1CO | > 100 µM | –
12 | CC(=O)NC1=CC(=O)c2cc(C)cc(O)c2C1=O | 31.5 µM | –
13 | Cc1ccc2[nH]c(C(=O)NN3C(=O)C(C)SC34CCCCC4C)c(-c3ccccc3)c2c1 (stereo not drawn) | 51.4 µM | 22.2 µM
14 | O=C(O)/C=C/C(=O)O | > 100 µM | –
15 | O=C(/C=C/c1ccccc1O)/C=C/c1ccccc1O | 6.02 µM | –
16 | Cc1ccc2nc(N/N=C/c3cccc(C)n3)cc(C)c2c1 | 32.5 µM | –
17 | CC(C)(NC1=NCCO1)c1ccccc1 | > 100 µM | –
18 | CC(=O)OCC1OC(c2nnc(C)o2)=CC(OC(C)=O)C1OC(C)=O (stereo not drawn) | > 100 µM | –
19 | Cc1ccc2nc(Cl)c(/C=N/N3C(=O)/C(=C/c4ccc(N(C)C)cc4)N=C3c3ccccc3)cc2c1 | > 100 µM | –
20 | O=[N+]([O-])/C=C/c1ccc([N+](=O)[O-])cc1 | 30.4 µM | 14.7 µM
21 | COC(=O)n1c(CBr)c(Br)c2ccccc21 | > 100 µM | –
22 | Clc1ncnc2c1ncn2CCCCCCCCCCCCn1cnc2c(Cl)ncnc21 | 26.1 µM | –
23 | CCOC(=O)/C(=C\c1ccc(F)cc1)C(C)=O | 62.2 µM | –
24 | COc1ccc(/C=C2\CN(C)Cc3c2[nH]c(=O)c(C#N)c3-c2ccc(OC)cc2)cc1 | > 100 µM | –
25 | O=C1C=CC(=O)c2c1ncc1c2nc2sccn21 | > 100 µM | 22.3 µM
26 | COc1cc2c(cc1OCCCN1CCN(c3cc(=O)oc4c(C)c(OC)ccc34)CC1)N=C[C@@H]1CCCN1C2=O | 6.31 µM | 2.35 µM

Row | SMILES | TGI | GI50
27 | CCN1CCC(CC(=O)Nc2n[nH]c3nc(-c4cccs4)c(Br)cc23)CC1 | > 25 µM | 13.1 µM
28 | COc1nc2[nH]ccc2c(=O)n1C | > 100 µM | –
29 | CCOc1cc(C2SCC(=O)N2c2nc3cc4sc(N5C(=O)CSC5c5ccc(O)c(OCC)c5)nc4cc3s2)ccc1O (stereo not drawn) | > 100 µM | –
30 | COc1ccc(/C=C\c2cc(OC)c(OC)c(OC)c2)cc1OCC(=O)Nc1nc2ccc(OC(F)(F)F)cc2s1 | > 100 µM | > 100 µM
31 | COc1ccc(C(=O)CC(c2ccc(OC)c(OC)c2)c2c(O)c3ccccc3oc2=O)cc1OC (stereo not drawn) | > 100 µM | –
32 | O=C(/C=C\c1ccc2ccccc2n1)c1cc(Cl)ccc1O | > 100 µM | 46.5 µM
33 | OCC(O)C(O)C(O)C(/C=N\Nc1ncnc2ccc(Br)cc12)=N/Nc1ncnc2ccc(Br)cc12 (stereo not drawn) | > 100 µM | –
34 | NC(=O)NCCSC1CCCCC1O (stereo not drawn) | > 100 µM | –
35 | COc1cc2c3c(n(C)c(=O)c2cc1OC)-c1cc2c(cc1/C3=C/[C@H](N)CCCCN)OCO2 | 0.471 µM | –
36 | O=C(Nc1cccc(-n2ccc3c(NC(=O)c4ccccc4)nccc32)c1)c1cc(N2CCOCC2)cc(C(F)(F)F)c1 | > 100 µM | 1.09 µM
37 | CC1CC2(CCC1OCc1ccccc1)OCCO2 (stereo not drawn) | > 100 µM | –
38 | COc1ccc2c(c1)CC[C@@H]1[C@@H]2CC[C@]2(C)C(=O)/C(=C/c3cc(OC)c(OC)c(OC)c3)C[C@@H]12 | 96 µM | –
39 | O=C(CCCn1ccnc1[N+](=O)[O-])NCCn1ccnc1[N+](=O)[O-] | > 100 µM | –
40 | O=C(OCc1ccccc1)N1c2cc([N+](=O)[O-])ccc2C(=O)N2CCC[C@H]2C1O (stereo partly drawn) | > 100 µM | –
41 | CC(C)CCC/C(CBr)=C(\Cl)CCl | 27.3 µM | –
42 | COc1cc(/C=C2\C(=O)Nc3ccccc32)cc(OC)c1OC | 87.1 µM | 18.3 µM
43 | CCOC(=O)C(NCc1cccc(C(F)(F)F)c1)(NC(=O)c1ccccc1)C(F)(F)F (stereo not drawn) | > 100 µM | –
44 | O=C(O)CCCNS(=O)(=O)c1ccc2ccccc2c1 | > 100 µM | –
45 | CNCCOC(=O)/C=C1/CCC2C(C(O)CC3C(C)(C(=O)OC)CCCC23C)C1C (stereo not drawn) | 0.0686 µM | 0.0245 µM
46 | CNC(=O)OCc1[nH]ccc2c(C)c3nc4ccc(OC)cc4c3cc12 | 15.2 µM | –
47 | Nc1nc2cc(CNc3ccc(C(=O)NC(CCC(=O)O)C(=O)O)cc3)ccc2nc1-c1ccccc1 (stereo not drawn) | > 10 µM | –
48 | Cc1cc(NC(=O)NC(=O)c2ccccc2NC(=O)CN)ccc1Oc1ncc(Br)cn1 | 31.7 µM and > 100 µM | 0.449 µM
49 | c1ccc(Nc2nnc(-c3nsc4ccccc34)o2)cc1 | > 100 µM | –
50 | NC1=NC(c2ccc(F)cc2)C2=C(N1)c1ccc3ccccc3c1OCC2 (stereo not drawn) | > 100 µM | 22.4 µM
51 | COc1ccc(C(O)/C(=C/n2ccnc2)c2ccccc2)cc1OC (stereo not drawn) | > 100 µM | –
52 | CC(=O)NC1=C(NCc2ccc(Cl)cc2)C(=O)c2ccccc2C1=O | > 50 µM | –

Row | SMILES | TGI | GI50
53 | CCS(=O)(=O)c1c2cc(OC)ccc2nc2ccc(OC)cc12 | > 100 µM | –
54 | CN(C)CCn1c(=O)c2ccc3c4c(nn3CCN(C)C)c3ccccc3n(c1=O)c24 | 1.71 µM | –
55 | Cc1ccccc1C(C(=O)NC1CCCCC1)N(C(=O)Cn1ccnc1C)c1cccc(F)c1 (stereo not drawn) | > 100 µM | > 51.7 µM
56 | CN(C)S(=O)(=O)c1ccc(Nc2ccc(O)c3c2C(=O)c2c([N+](=O)[O-])ccc(O)c2C3=O)cc1 | > 100 µM | –
57 | CC(=O)OC12CC(C)C3(O)C4C=C(C)C(=O)[C@@]4(O)CC(CO)=C[C@H]3C1C2(C)C (stereo partly drawn) | > 1000 µM | > 1000 µM
58 | Cc1cc(N=C2C=C(Nc3cc(C)on3)C(=O)c3ccccc32)no1 | > 100 µM | –
59 | COc1cc2c(cc1OC)-c1c(c3ccc([N+](=O)[O-])cc3c(=O)n1CCCN)C2=O | 11.4 µM | 3.48 µM
60 | N#Cc1nc(/C=C/c2ccccc2)oc1N | > 100 µM | –
61 | COc1ccc(-n2c(C)nc3c(c(C)nn3-c3ccccc3)c2=O)cc1 | > 100 µM | 0.53 µM
62 | COc1cc(OC)cc(-c2cncn2-c2ccc(-c3nc4cc(OC)cc(OC)c4s3)cc2)c1 | > 100 µM | > 100 µM
63 | O=C(NC1(C(=O)O)CC1c1ccccc1)c1ccccc1 (stereo not drawn) | > 100 µM | –
64 | CC(=O)O[C@H]1CC[C@@]2(C)C(=CC[C@@H]3C2CC[C@]2(C)Nc4[nH]ncc4CC32)C1 (stereo partly drawn) | > 100 µM | –
65 | CC(C)(C)c1cc(C2COC(=O)COCC(=O)OCCOCCOCCO2)cc(C(C)(C)C)c1O (stereo not drawn) | > 100 µM | –
66 | COC(=O)c1ccccc1CC(Cc1ccccc1)C(=O)OC (stereo not drawn) | > 100 µM | –
67 | CN1CC2CC(C1)c1cccc(=O)n1C2 (stereo not drawn) | > 100 µM | –
68 | Cc1n(CC(=O)c2ccccc2)nc2sc(N)n[n+]12 | 87.5 µM | –
69 | Nc1c(S(=O)(=O)O)cc(Nc2cccc(S(=O)(=O)/C=C/S(=O)(=O)O)c2)c2c1C(=O)c1ccccc1C2=O | > 100 µM | –
70 | Clc1cc(Cl)cc(Nc2nc3ccccc3nc2-c2cccs2)c1 | > 100 µM | –
71 | CCOC(=O)C1=C(c2ccccc2)N(c2ccc(OC)cc2)[C@]2(C#N)C(O)=C(Cl)C(Cl)=C(O)[C@]12C#N | 66.7 µM | 23 µM
72 | O=[N+]([O-])c1ccc(N=Nc2c(O)[nH]c3ccccc23)cc1 | > 92.7 µM | –
73 | CCOC(=O)[C@H]1Nc2ccc(Cl)cc2[C@H]2c3ccccc3O[C@H]21 | > 100 µM | –
74 | COc1ccc2c(c1)-c1oc3ccccc3c(=O)c1CO2 | > 100 µM | –
75 | CCC[CH2][Sn]1([CH2]CCC)[O]C(=O)CN=Cc2ccccc2[O]1 | 2.24 µM | 1.04 µM
76 | Cc1cccc2c1C/C(=C\c1cccc(C)c1C(=O)O)C2=O | > 100 µM | –
77 | CCCCCCOc1ccc(NC2=C(Cl)C(=O)c3ncccc3C2=O)cc1 | 3.77 µM | –
